# Experimental data published in PubChem BioAssay AID1159614 (National Center for Advancing Translational Sciences (NCATS), 2016).
# Screen size: about 45,000 compounds; about 65 (0.1%) were called active. Calls come from the whole dose curve; as a rule, active = well fitted activation curve with a large enough effect; inconclusive = small, poorly fitted or top-dose-only effect; inactive = no such curve, though single readings can be large or run the other way. This is one part of the list.
# Molecular target: Galactocerebrosidase (Homo sapiens) (UniProt P54803)
# Sequence of UniProt P54803 (P54803 whole entry, looked up): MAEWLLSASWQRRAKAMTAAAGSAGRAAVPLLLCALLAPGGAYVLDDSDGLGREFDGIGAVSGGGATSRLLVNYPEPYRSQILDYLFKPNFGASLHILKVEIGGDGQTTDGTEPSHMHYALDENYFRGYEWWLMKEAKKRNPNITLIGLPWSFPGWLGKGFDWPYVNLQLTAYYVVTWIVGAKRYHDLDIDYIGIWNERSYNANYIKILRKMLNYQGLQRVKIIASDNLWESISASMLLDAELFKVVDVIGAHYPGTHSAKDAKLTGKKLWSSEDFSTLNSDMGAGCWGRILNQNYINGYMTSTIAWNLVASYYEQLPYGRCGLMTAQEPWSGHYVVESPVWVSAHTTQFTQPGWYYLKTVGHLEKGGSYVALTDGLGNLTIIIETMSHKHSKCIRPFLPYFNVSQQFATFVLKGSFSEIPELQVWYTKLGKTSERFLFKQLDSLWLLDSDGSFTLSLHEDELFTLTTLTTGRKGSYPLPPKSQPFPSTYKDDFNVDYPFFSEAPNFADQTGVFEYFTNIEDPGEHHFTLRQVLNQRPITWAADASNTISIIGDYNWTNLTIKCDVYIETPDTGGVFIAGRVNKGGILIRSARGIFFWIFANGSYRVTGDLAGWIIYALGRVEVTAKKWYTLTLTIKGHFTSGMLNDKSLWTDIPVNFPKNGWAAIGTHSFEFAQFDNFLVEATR
# Assay: A Novel Cell-Based Assay to Identify Small Molecules for B -Galactocerebrosidase; note: 0% is about no effect; nearly all actives have a fitted effect of over 65% in size
# Details: 145M-Twi-hGALC-G270D cells (Twitcher mouse brain line with human GALC G270D), HMU-beta-Gal fluorescence, 48 h; series mostly up to 57.5 µM; activation: at the top concentration
# Summary of the method: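 Mutant human GALC (G270D), stably expressed in a Twitcher mouse brain cell line lacking endogenous GALC, is measured in live-treated cells via 6-hexadecanoylamino-4-methylumbelliferyl-β-galactoside hydrolysis (0.1 mM final, pH 5.2) with fluorescent detection.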
row,Compound,activation
1,COc1ccc(OC)c(CNS(=O)(=O)c2ccc(-c3coc(C)n3)cc2)c1,inactive: -9.54%
2,CC(=O)c1cc(-c2ccccc2)n(CC(=O)Nc2ccc(C)c(C)c2)c1C,inactive: -6.09%
3,Cc1cc2nc(-c3ccc(NC(=O)c4ccccc4F)cc3)oc2cc1C,inactive: 12.7%
4,COc1ccccc1-c1noc(-c2ccc(NC3CCCC3)c([N+](=O)[O-])c2)n1,inactive: -12.9%
5,COc1ccccc1-c1nc(SCC(=O)NCc2ccccc2)c2c(=O)n(C)c(=O)n(C)c2n1,inactive: -9.81%
6,CCOc1ccc(CNC(=O)CS(=O)(=O)c2cccc3nsnc23)cc1,inactive: -4.82%
7,COc1ccc(NC(=O)C(NS(=O)(=O)c2cccc3nsnc23)C(C)C)cc1 (centres undefined),inactive: -8.58%
8,COc1ccccc1CNc1nc2c(S(=O)(=O)c3ccc(C)c(C)c3)nnn2c2ccc(Cl)cc12,inactive: -6.21%
9,O=C(Cn1c(=O)oc2cc(S(=O)(=O)NCc3ccccc3)ccc21)Nc1cccc(F)c1,inactive: -3.7%
10,O=C(c1ccc(F)cc1)c1cn(Cc2ccccc2)c2cc3c(cc2c1=O)OCO3,inactive: -12.8%
11,CCOC(=O)c1c(NC(=O)c2cc(-c3ccc(Br)cc3)on2)sc(C(C)=O)c1C,inactive: -19.1%
12,COc1ccc(NC(=O)c2cc3ccccc3o2)c(OC)c1,inactive: -10.2%
13,O=C(COc1ccccc1Cl)Nc1ccc(-c2nc3ccccc3s2)cc1,inactive: -12.2%
14,CC1CCCN(c2cc3c(cc2F)c(=O)c(S(=O)(=O)c2cccc(Cl)c2)cn3Cc2ccccc2)C1 (centres undefined),inactive: -16.9%
15,COc1ccc(C2=CC(c3cc(Br)ccc3F)n3c(nc4ccccc43)N2)cc1 (centres undefined),inactive: -7.46%
16,O=C(Nc1c(C(=O)N2CCN(c3ccccc3F)CC2)oc2ccccc12)c1cccc(F)c1,inactive: 1.39%
17,Cc1oc(-c2ccc(C(=O)Nc3ccc(F)cc3)cc2)nc1COc1ccccc1,inactive: -15.5%
18,Cc1cccc(CS(=O)(=O)c2ncc(Cl)c(C(=O)Nc3nnc(C(C)C)s3)n2)c1,inactive: -6.72%
19,O=C(CCn1c(=O)c2cccn2c2cccnc21)N1CCN(c2cccc(C(F)(F)F)c2)CC1,inactive: -7.13%
20,CC(C)NC(=O)c1ccc(Cn2c(SCc3ccc(F)cc3)nc3cccnc32)cc1,inactive: 4.45%
21,COc1ccc(CCNC(=O)C(=O)NCC(c2ccco2)S(=O)(=O)c2ccc(C)cc2)cc1 (centres undefined),inactive: 3%
22,COc1ccc(C(=O)/C=C/c2cn(CC(O)CN3CCc4ccccc43)c3ccccc23)cc1OC (centres undefined),inactive: -11.7%
23,CCC(C(=O)Nc1cc(C)ccc1C)n1c(=O)c(C(F)(F)F)nc2ccccc21 (centres undefined),inactive: -11.4%
24,COCc1nnc(NC(=O)c2cc(OC)c(OC)c(OC)c2)s1,inactive: -2.38%

row,Compound,activation
1,COc1ccc(OC)c(/C=C/c2nc3ccccc3c(=O)n2-c2ccc(F)c(Cl)c2)c1,inactive: -8.71%
2,Cc1ccc(NC(=O)C2CCCN(S(=O)(=O)c3c(C)n[nH]c3C)C2)c(C)c1 (centres undefined),inactive: -9.69%
3,COc1cccc(CNS(=O)(=O)c2cnc(N)nc2)c1,inactive: -10.2%
4,COc1ccccc1CNC(=O)CCc1c(C)c2cc3c(C)c(C)oc3cc2oc1=O,inactive: 3.77%
5,C=CCc1cccc2cc(-c3nc4ccc(C)cc4[nH]3)c(=O)oc12,inactive: -7.42%
6,CCOC(=O)c1ccc(NC(=O)Cn2cc(C(=O)C3CC3)c3ccccc32)cc1,inactive: -14.8%
7,COc1ccc(CCNC(=O)c2ccc3c(c2)N(Cc2ccc(F)cc2)C(=O)c2ccccc2S3(=O)=O)cc1OC,inactive: -0.328%
8,COCC(=O)n1nc(-c2ccco2)nc1NCc1ccccc1Cl,inactive: -11.8%
9,Nc1nc2c(ncn2COC(CO)CO)c(=O)[nH]1,inactive: -21.6%
10,COc1cc(OC)cc(C(=O)Nc2ccc(-c3nc4ccccc4s3)cc2C)c1,inactive: 8.95%
11,Cc1cc(C)n(-c2nc(C)c(C)c(=O)n2CC(=O)Nc2ccc([N+](=O)[O-])cc2)n1,inactive: -2.56%
12,Cc1ccc(-n2ncc3c(NCCCN4CCOCC4)ncnc32)cc1C,inactive: 4.53%
13,CCOC(=O)c1ccc(NC(=O)CCCn2c(=O)c3cccn3c3ccccc32)cc1,inactive: -12.2%
14,Cc1ccccc1Nc1c(-c2c(F)cccc2Cl)nc2ccc(Br)cn12,inactive: -13.8%
15,Cc1c(C(=O)Nc2cccc(C(F)(F)F)c2)sc2nc[nH]c(=O)c12,inactive: -31%
16,CC(C)c1ccc(NC(=O)Cn2c(=O)n(CC3CCC(C(=O)NCCc4ccccc4)CC3)c(=O)c3ccccc32)cc1 (centres undefined),inactive: -8.34%
17,Cc1c(C(=O)N2CCOCC2)oc2c1-c1nn(CC(=O)NCc3cccc(F)c3)cc1CC2,inactive: -12.4%
18,COC(=O)c1ccc(Cl)cc1NC(=O)NCCc1c(C)nn(C)c1C,inactive: -6.4%
19,COc1ccccc1CNC(=O)Cn1c(=O)nc(-c2ccccc2F)c2cc(Cl)ccc21,inactive: -20.6%
20,Cc1ccc(-n2c(=O)c3cccnc3n2CC(=O)Nc2cc(C)cc(C)c2)cc1,inactive: -16.3%
21,COc1ccc(OC)c(C(=O)CC2(O)C(=O)N(Cc3ccccc3C)c3ccccc32)c1 (centres undefined),inactive: -10.7%
22,Cc1ccc(/C=C(\C#N)c2nc(-c3ccc(-c4ccccc4)cc3)cs2)cc1,inactive: -7.4%
23,Cc1ccc(S(=O)(=O)C2(C(=O)Nc3ccc(Cl)c(C(F)(F)F)c3)CC2)cc1,inactive: -5.46%
24,CCOC(=O)c1cccc(NC(=O)CCS(=O)(=O)c2ccc3c(c2)CC(=O)N3C)c1,inactive: -1.7%

row,Compound,activation
1,Cc1ccc(Cl)cc1N1CCN(C(=O)C2CCC(CNS(=O)(=O)c3cccs3)CC2)CC1 (centres undefined),inactive: -3.9%
2,CCOC(=O)c1c(C)[nH]c(C)c1S(=O)(=O)N1CCC(C(=O)Nc2cc(C)ccn2)CC1,inactive: -11.1%
3,Cc1cccc(N2CCN(C(=O)CS(=O)(=O)c3cccc4nsnc34)CC2)c1C,inactive: -8.43%
4,Cc1ccc(CNc2ccc(-c3nc(-c4ccncc4)no3)cc2[N+](=O)[O-])cc1,inactive: 1.79%
5,COc1ccc(-n2ccnc2SCC(=O)Nc2ccc3c(c2)OCO3)cc1,inactive: -3.63%
6,CC(C)(C)C1CCc2c(sc(NC(=O)Cn3nnc(-c4ccccc4Cl)n3)c2C#N)C1 (centres undefined),inactive: -17.9%
7,CCc1ccccc1N(CC)C(=O)c1c(C)oc2ncn(C)c(=O)c12,inactive: -17%
8,Cc1ccc(-c2nc(S(=O)(=O)c3ccccc3)c(N3CCN(c4ccccc4)CC3)o2)cc1,inactive: -9.03%
9,CCc1ccccc1NS(=O)(=O)c1ccc2[nH]cc(C(=O)N(CC(C)C)CC(C)C)c(=O)c2c1,inactive: -0.668%
10,Cc1ccc2nc(COc3ccccc3NC(=O)COc3ccc(F)cc3)cc(=O)n2c1,inactive: -6.14%
11,CCc1ccc2nc(N(CCN(CC)CC)C(=O)c3cccs3)sc2c1,inactive: -14.8%
12,O=C(Nc1ccccc1C(=O)OCc1cc(=O)n2c3c(sc2n1)CCCC3)c1ccc(F)cc1,inactive: -12.5%
13,COc1ccc(NC(=O)C2CCN(S(=O)(=O)c3ccc4c(c3)CCCC(=O)N4)CC2)cc1OC,inactive: -1.51%
14,Cc1cccc(C(C)C)c1NC(=O)Cn1c(=O)oc2cc(S(=O)(=O)N3CCCC3)ccc21,inactive: -13.2%
15,COc1ccc(-c2nc(SCC(=O)Nc3ccc4c(c3)OCCO4)c(-c3ccc(F)cc3)[nH]2)cc1,inactive: -11%
16,COc1cccc(C(=O)Nc2nc3nc(-c4ccccc4)cc(=O)n3[nH]2)c1,inactive: -23.2%
17,CC(=O)c1ccc(NC(=O)CN2C(=O)CN(C)C(=O)c3ccccc32)cc1,inactive: -12.5%
18,COc1ccc(-c2oc3ncn4nc(COc5cccc(C)c5C)nc4c3c2-c2ccc(OC)cc2)cc1,inactive: -15.9%
19,COc1cc(Nc2nc(SCc3ccc(Cl)cc3)nc3ccccc23)cc(OC)c1,inactive: -6.9%
20,COc1cccc(CNC(=O)C2=C(C)C(=O)OC23CCN(C(C)=O)CC3)c1OC,inactive: -4.55%
21,O=C1c2oc3ccccc3c(=O)c2C(c2cccc(O)c2)N1c1nncs1 (centres undefined),inactive: 2.18%
22,O=C(Cn1c(=O)nc(-c2ccccc2)c2ccccc21)NCCc1ccccc1,inactive: -8.34%
23,CCOC(=O)c1c(-c2ccc(C)cc2)csc1NC(=O)c1cc(=O)c2cc(C)ccc2o1,inactive: 5.27%
24,O=C(COCc1cc(-c2cccs2)on1)N1CCN(c2ccccc2)CC1,inactive: -19.5%

row,Compound,activation
1,COc1cc(C(=O)Nc2ccc(NC(=O)c3ccc(C(C)(C)C)cc3)cc2)cc(OC)c1OC,inactive: -23.8%
2,CCC(C(=O)NCc1cc(OC)ccc1OC)n1nc(C)c2sc3ccccc3c2c1=O (centres undefined),inactive: -1.06%
3,CN(C)c1cccc(C(=O)N2CCC(c3c[nH]c4ccccc34)(c3c[nH]c4ccccc34)CC2)c1,inactive: 0.386%
4,Cc1cccc(CNC(=O)c2ccc(N3Cc4ccccc4Oc4ncccc43)s2)c1,inactive: -19%
5,COc1cccc(C(=O)N2CCC(C(=O)Nc3cccc(Cl)c3)CC2)c1,inactive: 2.35%
6,COc1ccc(OC)c(CNC(=O)C2CCCN(c3ncnc4onc(-c5ccc(F)cc5)c34)C2)c1 (centres undefined),inactive: -11.6%
7,Fc1ccc(NCc2nnc3n2CCCCC3)cc1Cl,inactive: -14.8%
8,COc1ccccc1C(=O)Nc1ccc2nc(SCCOc3ccccc3C)sc2c1,inactive: -18.3%
9,CC(C)c1ccc(N2C(=O)CSC23C(=O)N(Cc2cccc(F)c2)c2ccccc23)cc1 (centres undefined),inactive: -36.8%
10,COCc1cc(C)nc2c1C(=O)NC(c1ccc(C)cc1)N2Cc1ccccc1 (centres undefined),inactive: -8.19%
11,O=C(CSc1cn(CC(=O)N2CCCCC2)c2ccccc12)NCc1ccccc1,inactive: 0.529%
12,CCOc1ccc(-c2nnc(SCC(=O)NCc3ccccc3Cl)o2)cc1,inactive: -7.43%
13,CCCN1C(=O)c2[nH]nc(-c3ccccc3)c2C1c1cccc(O)c1 (centres undefined),inactive: -6.52%
14,CCN(CC)CCNC(=O)C(=O)NCC(c1ccc2c(c1)OCO2)N1CCOCC1 (centres undefined),inactive: -1.85%
15,CCOc1ccc(S(=O)(=O)N2CCN(c3cccc(C(F)(F)F)c3)CC2)cc1OCC,inactive: -23.3%
16,COc1ccc2c(c1)CCc1sc(NC(=O)c3cccc(Br)c3)nc1-2,inactive: -12.9%
17,COc1ccccc1NC(=O)CSC1=Nc2ccccc2C2=NC(Cc3ccccc3)C(=O)N12 (centres undefined),inactive: -7.04%
18,CCOc1ccc(CNC(=O)C2CCN(c3nnc(-n4c(C)ccc4C)s3)CC2)cc1,inactive: -40.5%
19,Cc1ccc(NC(=O)c2oc3ccccc3c2NC(=O)Cc2ccccc2)cc1,inactive: -12.3%
20,Cc1ccc(-c2onc(C)c2C)cc1S(=O)(=O)NCc1ccc(N(C)C)cc1,inactive: -14.6%
21,CCc1ccc(NC(=O)Cn2c(=O)n(CCCCC(=O)NCc3ccccc3Cl)c(=O)c3ccccc32)cc1,inactive: -11.1%
22,CCc1nc2c(cnn2-c2ccc(C)cc2)c(=O)n1Cc1ccccc1,inactive: -4.03%
